# Assay results published in paper PMC5892938.
# Some of the results follow. At the low end of the ranking, values are background and their order means little.
# Target: GST-SBP-SLBP (stem-loop binding protein) (UniProt Q14493)
# Assay: targeted RNA Bind-n-Seq;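 note: DESeq read counts versus GST-SBP nonspecific binding control pulldown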
# Settings: RBNS binding buffer: 25 mM Tris pH 7.5, 150 mM KCl, 3 mM MgCl2, 0.1% Tween, 0.5 mg/mL BSA, 1 mM DTT; 27 nM protein, 750 pM RNA pool; temperature not stated; high values mean tight binding
row,Sequence,binding signal (log2 fold change)
1,GGUCACGUCUCAAUCAACUCUAACGAGGGGGGGAAAACCCCUUUACCCUCAAUUUCAACAGCUCGCAGUCAAG,-0.658
2,GGUCACGUCUCAAUCAACUCAUGUCCAGGAGUUUCCUCCUGCAAUUUCAACAGCUCGCAGUCAAG,-0.0963
3,GGUCACGUCUCAAUCAACUCUUCUUCCAGGGAAAUCCCUGGCAAACUCAACAGCUCGCAGUCAAG,0.309
4,GGUCACGUCUCAAUCAACUCAUCCCCCAGGGAAAUCCCUGGCAUACUCAACAGCUCGCAGUCAAG,0.0425
5,GGUCACGUCUCAAUCAACUCAAUCCCCAGGGAAACCCCUGGCAUUUUCAACAGCUCGCAGUCAAG,0.16
6,GGUCACGUCUCAAUCAACUCAUCGUCCAGGGAAAUCCCUGGCUAAUUCAACAGCUCGCAGUCAAG,-0.0702
7,GGUCACGUCUCAAUCAACUCAUCGUCCAGGGAAAGCCCUGGCAAAUUCAACAGCUCGCAGUCAAG,0.186
8,GGUCACGUCUCAAUCAACUCAUCUCCCAGGGAAACCCCUGGUUUAUUCAACAGCUCGCAGUCAAG,-0.00399
9,GGUCACGUCUCAAUCAACUCAACUUCAGGAGUUUCCUCCUGUUUUCUCAACAGCUCGCAGUCAAG,-0.167
10,GGUCACGUCUCAAUCAACUCAGUCUCCAGGGAAACCCCUGGCAUUUUCAACAGCUCGCAGUCAAG,-0.12
11,GGUCACGUCUCAAUCAACUCAUUAGAGGGGGGGAAAACCCCUUUACCCUCAACAUCAACAGCUCGCAGUCAAG,0.299
12,GGUCACGUCUCAAUCAACUCAAUUCCCAGGGAAAACCCUGGUAUUUUCAACAGCUCGCAGUCAAG,-0.126
13,GGUCACGUCUCAAUCAACUCCUUAGAGGGGGGGAAAACCCCUUUACCCUCCGUAUCAACAGCUCGCAGUCAAG,0.226
14,GGUCACGUCUCAAUCAACUCAACUUCAGGAGUUUACUCCUGUAAUCUCAACAGCUCGCAGUCAAG,-0.18
15,GGUCACGUCUCAAUCAACUCUCAAGAGGGGGGGAAAACCCCUUUACCCUCAUCCUCAACAGCUCGCAGUCAAG,0.268
16,GGUCACGUCUCAAUCAACUCUAAAGAGGGGGGGAAAACCCCUUUACCCUCAUCAUCAACAGCUCGCAGUCAAG,0.394
17,GGUCACGUCUCAAUCAACUCUACUCCAGGAGUUUACUCCUGUUUACUCAACAGCUCGCAGUCAAG,0.0389
18,GGUCACGUCUCAAUCAACUCAAGUCCAGGAGUUUCCUCCUGCAAUUUCAACAGCUCGCAGUCAAG,-0.0413
19,GGUCACGUCUCAAUCAACUCUACUCCCAGGGAAAACCCUGGUUAACUCAACAGCUCGCAGUCAAG,-0.162
20,GGUCACGUCUCAAUCAACUCUUCCCCCAGGGAAAACCCUGGCUUAUUCAACAGCUCGCAGUCAAG,-0.0147
21,GGUCACGUCUCAAUCAACUCAUCGUCCAGGGAAAUCCCUGGUAAAUUCAACAGCUCGCAGUCAAG,0.173
22,GGUCACGUCUCAAUCAACUCUUUCCCCAGGGAAAGCCCUGGUUUUCUCAACAGCUCGCAGUCAAG,-0.0228
23,GGUCACGUCUCAAUCAACUCCCCAGAGGGGGGGAAAACCCCUUUACCCUCACUCUCAACAGCUCGCAGUCAAG,0.142
24,GGUCACGUCUCAAUCAACUCAGUCUCAGGAGUUUGCUCCUGCUAUUUCAACAGCUCGCAGUCAAG,0.092

row,Sequence,binding signal (log2 fold change)
1,GGUCACGUCUCAAUCAACUCAUCGUCAGGAGUUUCCUCCUGCAUUCUCAACAGCUCGCAGUCAAG,0.149
2,GGUCACGUCUCAAUCAACUCAUUCCCAGGAGUUUACUCCUGCUAACUCAACAGCUCGCAGUCAAG,0.364
3,GGUCACGUCUCAAUCAACUCAACUCCAGGAGUUUACUCCUGCAAUUUCAACAGCUCGCAGUCAAG,0.14
4,GGUCACGUCUCAAUCAACUCAAUUUCAGGAGUUUUCUCCUGUUUUUUCAACAGCUCGCAGUCAAG,-0.0678
5,GGUCACGUCUCAAUCAACUCAUCGUCCAGGGAAAGCCCUGGUAAAUUCAACAGCUCGCAGUCAAG,-0.243
6,GGUCACGUCUCAAUCAACUCAUUUCCAGGAGUUUCCUCCUGCUUACUCAACAGCUCGCAGUCAAG,0.00712
7,GGUCACGUCUCAAUCAACUCAUUUUCCAGGGAAAUCCCUGGCUUAGUCAACAGCUCGCAGUCAAG,-0.0752
8,GGUCACGUCUCAAUCAACUCAUCUCCCAGGGAAAACCCUGGUUAUCUCAACAGCUCGCAGUCAAG,-0.107
9,GGUCACGUCUCAAUCAACUCAAUUCCAGGAGUUUCCUCCUGUUUACUCAACAGCUCGCAGUCAAG,-0.0693
10,GGUCACGUCUCAAUCAACUCUAUAGAGGGGGGGAAAACCCCUUUACCCUCGUAAUCAACAGCUCGCAGUCAAG,-0.125
11,GGUCACGUCUCAAUCAACUCUUUUCCCAGGGAAAGCCCUGGUUUAUUCAACAGCUCGCAGUCAAG,-0.186
12,GGUCACGUCUCAAUCAACUCCUUAGAGGGGGGGAAAACCCCUUUACCCUCCCAUUCAACAGCUCGCAGUCAAG,-0.384
13,GGUCACGUCUCAAUCAACUCUAUCCCAGGAGUUUACUCCUGCAAUCUCAACAGCUCGCAGUCAAG,0.291
14,GGUCACGUCUCAAUCAACUCAAGGUCAGGAGUUUUCUCCUGUUAAUUCAACAGCUCGCAGUCAAG,0.201
15,GGUCACGUCUCAAUCAACUCAAUCUCCAGGGAAACCCCUGGCUAUGUCAACAGCUCGCAGUCAAG,0.176
16,GGUCACGUCUCAAUCAACUCUACUCCCAGGGAAAACCCUGGCUUACUCAACAGCUCGCAGUCAAG,-0.211
17,GGUCACGUCUCAAUCAACUCUAUUCCCAGGGAAAUCCCUGGUUUUUUCAACAGCUCGCAGUCAAG,-0.129
18,GGUCACGUCUCAAUCAACUCAAACGAGGGGGGGAAAACCCCUUUGCCCUCACAUUCAACAGCUCGCAGUCAAG,-0.0277
19,GGUCACGUCUCAAUCAACUCACAAGAGGGGGGGAAAACCCCUUUACCCUCAUCCUCAACAGCUCGCAGUCAAG,-0.232
20,GGUCACGUCUCAAUCAACUCAUUUUCCAGGGAAACCCCUGGCAUACUCAACAGCUCGCAGUCAAG,0.224
21,GGUCACGUCUCAAUCAACUCAACUUCCAGGGAAAGCCCUGGCUAAUUCAACAGCUCGCAGUCAAG,0.26
22,GGUCACGUCUCAAUCAACUCAUCUCCAGGAGUUUCCUCCUGCAAACUCAACAGCUCGCAGUCAAG,0.0075
23,GGUCACGUCUCAAUCAACUCAUCCUCAGGAGUUUACUCCUGCAUACUCAACAGCUCGCAGUCAAG,0.156
